# Measured values taken from PubChem BioAssay AID1460 (National Center for Advancing Translational Sciences (NCATS), 2008).
# In all, about 270,000 compounds went through this assay and about 5,800 (2.1%) were called active. This list was built around the results that the source calls inconclusive (neither active nor inactive); the mix of calls is not that of the screen. Calls come from the whole dose curve; as a rule, active = well fitted inhibition curve with a large enough effect; inconclusive = small, poorly fitted or top-dose-only effect; inactive = flat fitted curve, though single readings scatter. A potency beside an inconclusive call is a rough fit, not a confirmed value.
# Target: Microtubule-associated protein tau (Homo sapiens) (UniProt P10636)
# Test: qHTS for Inhibitors of Tau Fibril Formation, Thioflavin T Binding; note: nearly all actives have a fitted effect of over 55% in size
# Conditions: recombinant tau K18 P301L (four-repeat tau fragment), heparin-induced fibrillization, ThT fluorescence; series mostly up to 57.4 µM; activity, negative = inhibition: at the top concentration
# Procedure, shortened: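 Aggregation was driven by heparin (20 uM final) acting on recombinant tau […] bearing P301L in 100 mM sodium acetate pH 7; fibrils were detected with Thioflavin T.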
# % is set by controls: 0 for no effect and ±100 for the full control effect; potency is the fitted concentration of half-maximal effect; tags give direction and shape of the fitted curve.
# UniProt P10636, sequence (P10636 whole entry, looked up): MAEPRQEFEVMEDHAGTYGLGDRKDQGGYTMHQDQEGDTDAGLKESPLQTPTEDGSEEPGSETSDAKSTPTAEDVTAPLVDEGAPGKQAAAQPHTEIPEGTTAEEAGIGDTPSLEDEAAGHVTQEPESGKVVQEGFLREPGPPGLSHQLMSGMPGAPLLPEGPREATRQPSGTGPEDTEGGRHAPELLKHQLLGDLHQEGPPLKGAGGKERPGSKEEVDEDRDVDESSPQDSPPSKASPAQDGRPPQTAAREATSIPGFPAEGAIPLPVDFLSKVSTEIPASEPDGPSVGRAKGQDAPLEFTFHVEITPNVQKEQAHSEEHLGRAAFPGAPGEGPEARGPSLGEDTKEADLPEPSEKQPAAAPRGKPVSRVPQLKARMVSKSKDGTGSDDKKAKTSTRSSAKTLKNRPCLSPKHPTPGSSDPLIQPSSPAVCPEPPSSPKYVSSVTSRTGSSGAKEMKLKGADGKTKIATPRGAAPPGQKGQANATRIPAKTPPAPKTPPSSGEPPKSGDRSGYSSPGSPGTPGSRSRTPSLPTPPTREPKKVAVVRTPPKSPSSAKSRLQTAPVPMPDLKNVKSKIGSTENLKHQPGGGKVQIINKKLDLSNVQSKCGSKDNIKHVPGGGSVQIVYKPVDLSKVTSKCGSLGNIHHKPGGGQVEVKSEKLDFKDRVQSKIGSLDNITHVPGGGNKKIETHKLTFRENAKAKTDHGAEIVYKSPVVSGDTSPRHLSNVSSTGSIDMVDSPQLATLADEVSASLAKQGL
Structure (SMILES),Potency,"activity, negative = inhibition"
COc1ccc2[nH]c(C(=O)N(C)c3ccc(F)cc3F)cc2c1,"inconclusive: 22.4 µM [inhibitor, single point]",
O=C(Nc1nnc(S(=O)(=O)N2CCOCC2)s1)c1cccc(Br)c1,"inconclusive: 2.24 µM [inhibitor, full curve]",
Cc1ccc(NC(=O)COc2ccc(Br)cc2CO)cc1,"inconclusive: 3.98 µM [inhibitor, partial curve]",
Cc1nc(SCc2ccccc2)c2oc3ccccc3c2n1,"inconclusive: 39.8 µM [inhibitor, partial curve]",
CC(C)NC(=S)N/N=C/c1ccc2c(c1)OCCO2,"inconclusive: 15.8 µM [inhibitor, partial curve]",
CCOC(=O)c1ccc(-c2ccc(-c3cc(=O)oc4cc(OC)c(OC)c(OC)c34)cc2)cc1,"inconclusive: 28.2 µM [inhibitor, single point]",
Cn1cccc1/C=C1\CCC/C(=C\c2cccn2C)C1=O,active: 5.01 µM,
CCN1C(=O)/C(=C\C=C2/C=CC=CN2CC)SC1=S,active: 14.1 µM,
CC(=O)c1c(NCc2ccccc2)nc(=O)n(-c2ccccc2)c1C,,inactive: -1.9%
CCOC(=O)N1CCN(C(=O)CSc2nnc(COc3ccc(Cl)cc3)o2)CC1,"inconclusive: 1.78 µM [inhibitor, full curve]",
N#Cc1ccc(NC(=O)c2cc(-c3cccc(Cl)c3)on2)cc1,,inactive: -8.66%
O=C(Nc1ccc2c(c1)OCO2)Oc1ccccc1,"inconclusive: 22.4 µM [inhibitor, single point]",
CCN(Cc1ccncc1)Cc1nc(-c2ccc(C(=O)OC)cc2)no1,,inactive: 0.386%
O=C(COc1ccc(Cl)cc1)NCc1nnc(SCC(=O)N2CCCc3ccccc32)o1,,inactive: -6.13%
CCC(=O)c1ccc(NC(C)=O)cc1O,,inactive: -0.0734%
O=C(CSc1nc2ccccc2s1)N/N=C/c1ccc(C(=O)O)cc1,,inactive: -6.13%
CCn1c(N2CCN(CC(=O)c3ccc(OC)cc3)CC2)nc2ccccc21,"inconclusive: 7.08 µM [inhibitor, partial curve]",
Cc1[nH]nc2c1C(c1ccsc1C)C(C#N)=C(N)O2 (configuration not stated),"inconclusive: 28.2 µM [inhibitor, partial curve]",
Cc1cc(=O)[nH]c2nnc(SCC(=O)Nc3ccc(F)cc3F)n12,,inactive: 0.876%
COc1ccc(Cl)cc1NC(=O)C1CCN(S(=O)(=O)c2ccc3c(c2)CCCN3C(=O)C2CCC2)CC1,,inactive: 0.111%
Cc1ccc2c(Cl)c(C(=O)Nc3cc(C)on3)sc2c1,"inconclusive: 3.16 µM [inhibitor, full curve]",
COc1ccc(CN(Cc2nc3ccccc3c(=O)[nH]2)C(=O)C(C)(C)C)cc1,,inactive: -3.88%
COc1cccc(C(=O)CN2CCN(S(=O)(=O)c3ccc(Br)cc3)CC2)c1,"inconclusive: 25.1 µM [inhibitor, single point]",
O=C(Nc1cccc(-c2nc3ccccc3[nH]2)c1)c1ccccc1F,"inconclusive: 2.24 µM [inhibitor, partial curve]",

Structure (SMILES),Potency,"activity, negative = inhibition"
CC(=O)c1ccc(Sc2ccc(C(C)=O)cc2)cc1,,inactive: 0.651%
C=CCN1C=C2C(=O)C(C)(OC(=O)c3cccs3)C(=O)C=C2C=C1CCCC(=O)OC (configuration not stated),"inconclusive: 12.6 µM [inhibitor, partial curve]",inactive: -0.371% [at 11.5 µM]
CCc1ccc(S(=O)(=O)c2nnn3c2nc(NCc2cccc(OC)c2)c2cc(Cl)ccc23)cc1,,inactive: 8.25%
O=c1c2sc3ccccc3c2[nH]c(=S)n1CCN1CCOCC1,"inconclusive: 11.2 µM [inhibitor, partial curve]",
Cn1cc(C(=O)NCC2COc3ccccc3O2)c(=O)c2cc(S(=O)(=O)N3CCCCC3)ccc21 (configuration not stated),"inconclusive: 39.8 µM [inhibitor, partial curve]",
Cc1sc(NC(=O)C2CCCC2)c(C#N)c1C,"inconclusive: 14.1 µM [inhibitor, single point]",
COC(C/C=C\[C@@H](O)COCc1ccccc1)OC,,inactive: -1.92%
CC1=NN2C(=N)/C(=C\c3cc(C)n(Cc4ccccc4)c3C)C(=O)N=C2S1,"inconclusive: 15.8 µM [inhibitor, partial curve]",
CN(C)c1ccc(NC(=O)CSc2nc3ccccc3c(=O)n2C2CCCCC2)cc1,"inconclusive: 22.4 µM [inhibitor, single point]",
C/C(=N\OCC(=O)NC12CC3CC(CC(C3)C1)C2)c1cc2ccccc2o1,"inconclusive: 12.6 µM [inhibitor, partial curve]",
Nc1ccc(-c2nc3ncccc3o2)c(Cl)c1,"inconclusive: 17.8 µM [inhibitor, single point]",
CC(=O)NS(=O)(=O)c1ccc(Nc2ccc([N+](=O)[O-])c3nonc23)cc1,"inconclusive: 14.1 µM [inhibitor, partial curve]",
CCc1c(O)nc(SC2CC(=O)N(c3ccccc3)C2=O)[nH]c1=O (configuration not stated),,inactive: -6.03%
Oc1c(Cl)cc(Cl)c2c1NCCC2,active: 14.1 µM,
COc1cccc2sc(NNC(=O)COc3ccccc3)nc12,,inactive: -8.76%
CC(/C=C/c1ccccc1)=N\NC(=O)C1CC1(C)c1ccccc1 (configuration not stated),"inconclusive: 15.8 µM [inhibitor, partial curve]",
COC(=O)C1=C(C)NC(C)=C([N+](=O)[O-])C1c1ccccc1C(F)(F)F (configuration not stated),"inconclusive: 22.4 µM [inhibitor, partial curve] [middle of 4 runs]",
CN(C)c1ccc(-c2noc(C3CC(=O)N(c4ccc5c(c4)OCCO5)C3)n2)cc1 (configuration not stated),"inconclusive: 6.31 µM [inhibitor, partial curve, poor fit]",
COc1ccc(OC)c(-n2nnnc2SCC(=O)O)c1,,inactive: -7.86%
O=C(Nc1nc(-c2ccccn2)cs1)c1ccc(Br)s1,"inconclusive: 1.78 µM [inhibitor, partial curve]",
CCNC1=C(Cl)C(=O)c2ccccc2C1=O,active: 17.8 µM,
COc1ccc(CN2C(=O)c3cccnc3C2Nc2cc(Cl)c(OC)cc2OC)cc1 (configuration not stated),"inconclusive: 14.1 µM [inhibitor, partial curve, poor fit]",
S=c1[nH]nc(-c2ccco2)n1/N=C/C=C/c1ccco1,"inconclusive: 28.2 µM [inhibitor, single point]",
CC(C)=CCC(C)(C)C1OCCN1C(=O)c1ccccc1 (configuration not stated),"inconclusive: 12.6 µM [inhibitor, partial curve]",

Structure (SMILES),Potency,"activity, negative = inhibition"
O=C(Nc1ccc(Nc2ccccc2)cc1)C(Cl)(Cl)Cl,"inconclusive: 4.47 µM [inhibitor, partial curve]",
CC(C)OC(=O)C(C#N)c1nc2ccccc2nc1N1CCCC1 (configuration not stated),"inconclusive: 25.1 µM [inhibitor, single point]",
O=C1NN(c2cccc(Br)c2)C(=O)/C1=C/c1cccs1,"inconclusive: 12.6 µM [inhibitor, partial curve]",
CCn1c(SCc2ccc(C(=O)Nc3nccs3)cc2)nnc1-c1ccc(N)cc1,"inconclusive: 35.5 µM [inhibitor, partial curve]",
Cc1ccc(-c2nc3nc(C)cc(N4CCN(c5cccc(C)c5)C(C)C4)n3n2)cc1 (configuration not stated),"inconclusive: 11.2 µM [inhibitor, partial curve, poor fit]",
O=C(Cn1c(=O)nc(-c2ccccc2F)c2cc(Cl)ccc21)Nc1ccccc1C(F)(F)F,"inconclusive: 28.2 µM [inhibitor, single point]",
COc1c(O)ccc2c1CN1CCc3cc4c(cc3C1C2)OCO4 (configuration not stated),active: 22.4 µM,
Cc1cc(C(=O)COC(=O)CC2Sc3ccccc3NC2=O)c(C)n1-c1cccc(C(F)(F)F)c1 (configuration not stated),"inconclusive: 39.8 µM [inhibitor, single point]",
Nc1cccc(NC(=O)c2cccs2)c1,"inconclusive: 20 µM [inhibitor, partial curve, poor fit]",
COc1ccc(C(=O)N2CCCCC2)cc1S(=O)(=O)Nc1ccccc1,,inactive: -1.93%
CN(C)/C=C/C(=O)c1cnc(-c2ccc(Cl)cc2)s1,"inconclusive: 12.6 µM [inhibitor, partial curve, poor fit]",
O=c1c(C(c2c(O)nc3n(c2=O)CCS3)c2cccc3ccccc23)c(O)nc2n1CCS2,"inconclusive: 12.6 µM [inhibitor, partial curve]",
O=C(/C(Br)=C/Nc1cc(Cl)ccc1Cl)C(F)(F)F,"inconclusive: 11.2 µM [inhibitor, partial curve]",
CCOc1ccccc1NC(=O)CN1C(=O)COc2ccc(S(=O)(=O)Nc3ccccc3)cc21,"inconclusive: 3.16 µM [activator, partial curve, poor fit]",
COc1cccc2[nH]c(C(=O)NN)c(N)c12,active: 28.2 µM,
CCOC(=O)c1cc(C#N)c(=S)[nH]c1C,,inactive: -17.9%
COc1cccc(/C=N/NC(=O)c2cc(-c3cccn3C)n[nH]2)c1,"inconclusive: 2.24 µM [inhibitor, full curve]",
CCOc1ccc(S(=O)(=O)Nc2cccc(C)c2)c2cccnc12,inactive,
COc1cc(NC(=O)NCCN2CCN(c3ccc(Cl)cc3)CC2)ccc1C,"inconclusive: 14.1 µM [inhibitor, partial curve]",
CC(Oc1ccc(Cl)cc1Cl)C(=O)Nc1ccncc1 (configuration not stated),,inactive: -1.02%
CSc1nc(Cc2ccc(Cl)cc2)nc2ccccc12,"inconclusive: 15.8 µM [inhibitor, partial curve]",
CC(=O)Oc1ccc(C(=O)Nc2cccc(-c3nnc(-c4ccco4)o3)c2)cc1,"inconclusive: 4.47 µM [inhibitor, full curve, poor fit]",
COc1ccc(/C(C)=N/Nc2nc3ccccc3nc2C)cc1,active: 11.2 µM,
